# According to US7432350B2 (priority 2002, dated 2008):
# Target: S. cerevisiae ACCase BC domain (pCS16) (Saccharomyces cerevisiae, UniProt Q00955)
# Excerpt: Soraphen binding assay. […] Like pCS8, both of these constructs express their respective BC domains as N-terminal-His-tagged fusion proteins to facilitate purification. […] Therefore, pCS16M protein would be an excellent counter-selection agent to eliminate non-soraphen-binding-site interactions.
smiles,measurement,value
CO[C@H]1CCCC[C@@H](c2ccccc2)OC(=O)[C@@H](C)[C@@]2(O)O[C@H]([C@@H](C)[C@H](O)[C@H]2OC)[C@@H](C)/C=C/[C@H]1OC [soraphen A],soraphen binding to pCS16 protein,high-affinity
